Data from the supplement of paper PMC10338343.
± gives the standard deviation. In all, about 3,000 sequences were measured (“pre-steady-state target cleavage rate”: median about 0.0079, highest 2% from about 0.2 on). Only a part is listed here, and it is no random draw.

Each sequence was assayed on MILI (PIWIL2) piRISC loaded with piRNA #2 (26 nt) (assay: pre-steady-state target cleavage rate (min^-1); MIWI and MILI are mouse PIWI proteins and EfPiwi is from a freshwater sponge; tags in brackets are library labels; higher = faster piRNA-guided slicing of the target). Settings: guide: piRNA #2 5'p-UUAGGUAACCCAGUAGAUCCAGAGGA; auxiliary factor: 500 nM mouse GTSF1.
In short: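 Cleave-'n-Seq: a transcribed, DNA-blocked target RNA library (0.1 nM) was mixed with 1 nM active affinity-purified piRISC carrying one synthetic guide, with or without 500 nM GTSF1 partner protein, in HEPES–potassium acetate buffer at 33 °C for 0–8 or 0–960 min. Uncleaved targets were sequenced and normalised to depth and to weakly complementary targets. Three trials were pooled, and k3 was capped at 0.0001 min^-1. The pre-steady-state cleavage rate came from a burst-and-steady-state fit.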

| Sequence | pre-steady-state target cleavage rate |
| --- | --- |
| CUUAAGGAGUGGAUCUACUGGGAUACCUAA | 0.0104 ± 0.0067 |
| CUUAAGGACUGGAUCUUCAGGGUUACCUAA | 0.036 ± 0.013 |
| CUUAUGCUCUGGAUCUACUGGGAUACCUAA | 0.0451 ± 0.011 |
| CUUAAGGUCUGGAUCUACUGGGUUACCAUA | 0.0616 ± 0.012 |
| CUUAACCUCUAGGAUCUACUGGGUUACCUAA | 0.0385 ± 0.012 |
| CUUAUCCUCUGGAUCUACUGGGUUUACCUAA | 0.107 ± 0.023 |
| CUUAAGGAGACGAUCUACAGGGUUACCUAA | 0.00832 ± 0.0041 |
| CUUAAGGAGUGGUUCUACAGGGUUACCUAA | 0.0435 ± 0.0097 |
| CUUAAGGUGCUGGAUCUACUGGGUUACCUAA | 0.0675 ± 0.019 |
| CUUAAGGUCUGGAUCUUCUGGGUUAGCUAA | 0.00557 ± 0.0047 |
| CUUAAGGUCUGGAUCUACUGGGUUCCUAA | 0.00608 ± 0.0041 |
| CUUAAGCUAUGGAUCUACUGGGUUACCUAA | 0.0866 ± 0.013 |
| CUUAUCCUCUGGAUCUACUGGGUUACCAUA | 0.139 ± 0.026 |
| CUUAUCCUCUGGAUCUACUGGGAUUACCUAA | 0.0662 ± 0.02 |
| CUUAAGCUCUGGAUCUACUGGGUUACAUAA | 0.0717 ± 0.015 |
| CUUAAGCUCUGGAUGUACUGGGUUAGCUAA | 0.0299 ± 0.012 |
| CUUAAGGUCUGGUUCUACUGGGUUACCUUA | 0.0401 ± 0.015 |
| CUUAAGGUCUGGAUGAACUGGGUUACCUAA | 0.0133 ± 0.012 |
| CUUAAGGAGUGGAUCUACUGGGUGUACCUAA | 0.0153 ± 0.007 |
| CUUAUCCUCUGGAUCUACUGGGAUUCCUAA | 0.125 ± 0.055 |
| CUUAAGGAGUGGAUCUACUGGGUUACCUA | 0.0639 ± 0.018 |
| CUUAUCCUCUGGAACUACUGGGUAACCUAA | 0.0599 ± 0.022 |
| CUUAUCCUGUGGAACUACUGGGUUACCUAA | 0.0386 ± 0.017 |
| CUUAUCCUCUGCUUCUACUGGGUUACCUAA | 0.157 ± 0.026 |

| Sequence | pre-steady-state target cleavage rate |
| --- | --- |
| CUUAACCUGAGGAUCUACUGGGUUACCUAA | 0.0229 ± 0.01 |
| CUUAAGGUCUGCAUCAACUGGGUUACCUAA | 0.0218 ± 0.011 |
| CUUAACCACUCGAUCUACUGGGUUACCUAA | 0.119 ± 0.022 |
| CUUAAGGAGUGGAUCUACUGGGUAUACCUAA | 0.0254 ± 0.0083 |
| CUUAAGGUCUGCUUCUACUGGGUUACCUAA | 0.033 ± 0.011 |
| CUUAACCUCUGGAUCUACUGGGUUACCAUAA | 0.13 ± 0.03 |
| CUUAAGGUCAGGAUCUACAGGGUUACCUAA | 0.0472 ± 0.013 |
| CUUAAGCUCAGGAUCUACUGGGUUAGCUAA | 0.00585 ± 0.0052 |
| CUUAACCUCUGGAUCUACUGGGUUAUCCUAA | 0.117 ± 0.026 |
| CUUAAGGAGAGGAUCUACUGGGUUACCUAC [g2:g20:cont:t1C] | 0.0103 ± 0.0041 |
| CUUAACCUGUGGAUCUACUGCGUUACCUAA | 0.0105 ± 0.0061 |
| CUUAAGGUCAGGAUCAACUGGGUUACCUAA | 0.00947 ± 0.0062 |
| CUUAAGGUCUCGAUCUACAGGGUUACCUAA | 0.073 ± 0.013 |
| CUUAAGGUCUAGAUCUACUGGGUUACCUAA | 0.0905 ± 0.017 |
| CUUAAGCUCUCGAUCAACUGGGUUACCUAA | 0.088 ± 0.019 |
| CUUAAGCUCUGGAAGAACUGGGUUACCUAA | 0.0134 ± 0.0085 |
| CUUAAGGAGUGGAAGUACUGGGUUACCUAA | 0.00681 ± 0.0045 |
| CUUAUCCUCUGGAUCUACUGGGUAUACCUAA | 0.0987 ± 0.018 |
| CUUAAGGACUGGAUCUAGUGGGAUACCUAA | 0.00711 ± 0.0055 |
| CUUAUCCUCUGCAUCUAGUGGGUUACCUAA | 0.0659 ± 0.016 |
| CUUAAGGUCUGGAUCAACUGGGUUACCUUA | 0.029 ± 0.008 |
| CUUAUCCGUCUGGAUCUACUGGGUUACCUAA | 0.0798 ± 0.016 |
| CUUAAGGACUGGAUCAACAGGGUUACCUAA | 0.027 ± 0.0096 |
| CUUAAGGAGAGCGAUCUACUGGGUUACCUAA | 0.00459 ± 0.0037 |

| Sequence | pre-steady-state target cleavage rate |
| --- | --- |
| CUUAAGGAUUGGAUCUACUGGGUUACCUAA | 0.0475 ± 0.015 |
| CUUAAGGAGUGGAUCUACAGGGUUACCUUA | 0.043 ± 0.0094 |
| CUUAAGGACUGGAUCUCCUGGGUUACCUAA | 0.0127 ± 0.0073 |
| CUUAACCUCUGGAUCGUACUGGGUUACCUAA | 0.00644 ± 0.0035 |
| CUUAAGGAGACCUAGUACGGGUUACCUAA | < 0.0001 |
| CUUAAGGUCUGGAUCUACUGGGUUACCUGAA | 0.0831 ± 0.035 |
| CUUAAGGAGACGAUCUACAGGGUAACCUAA | 0.00518 ± 0.004 |
| CUUAACCUCUGGAUGUACUGGGUUACCUUA | 0.105 ± 0.027 |
| CUUAACCUCUGGAUCUACUGGUUACCUAA | 0.00574 ± 0.0037 |
| CUUAACCACUGGAUCUAGUGGGUUACCUAA | 0.0649 ± 0.012 |
| CUUAAGCACUGGAUGUACUGGGUUACCUAA | 0.11 ± 0.022 |
| CUUAACCUCUGGAGCUACUGGGUUACCUAA | 0.226 ± 0.049 |
| CUUAUCCUCUGGAUCUACUGGGUAACGUAA | 0.0633 ± 0.019 |
| CUUAUUCCUCUGGAUCUACUGGGUUACCUAA | 0.106 ± 0.025 |
| CUUAAGCUCUGGAUCAACUGGGUUACCAAA | 0.0443 ± 0.0094 |
| CUUAACCUCUGGAUGCUACUGGGUUACCUAA | 0.124 ± 0.029 |
| CUUAAGCUCUGGAUCUUCUGGGUAACCUAA | 0.0173 ± 0.0059 |
| CUUAAGCUCUGGAUCUACUGGGUUAACCUAA | 0.0621 ± 0.013 |
| CUUAAGGAGACCUAGAUGAGUGGUUACCUAA | < 0.0001 |
| CUUAAGCUCUGGAUCUACUGGGUUACGUAA | 0.0464 ± 0.011 |
| CUUAUCCUCUGGAGCUACUGGGUUACCUAA | 0.238 ± 0.052 |
| CUUAAGGAGUGGAUCUACUGGGUUACCUAAA | 0.0485 ± 0.015 |
| CUUAUCCUCUGGAUCUACUGGGUUACGUAA | 0.0586 ± 0.014 |
| CUUAAGGAGAGGAUCUCCUGGGUUACCUAA | 0.00487 ± 0.0048 |
